Here are results for 67 cell lines from the supplement of paper PMC4967469.

pIC50: −log10 of the molar value. The IC50 comes from the fitted curve, where viability falls to half of the control; where the fit passes the top or lowest dose, that dose stands as a limit. The AUC spans the tested range (256-fold, ending at the top dose) of the same fit; values near 1 show little effect. Any top dose called inferred is not printed in the source and was worked back from the curve model.

The term pIC50 denotes the negative decadic logarithm of the IC50, by convention in mol/L.

Compound in the test: COc1ncc(-c2ccc3nccc(-c4ccnnc4)c3c2)cc1NS(=O)(=O)c1ccc(F)cc1F [GSK2126458]
In words: Viability of human cancer cell lines after 72 h of drug (GDSC screen). The conditions noted are these: top dose inferred. On the procedure:
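Human cancer cell lines in 384-well plates, medium with 10% serum, drug for 72 h over a 256-fold dose range (nine 2-fold or five 4-fold steps up to the top dose). Adherent lines were fixed and stained with the nucleic acid dye Syto60, suspension lines read with resazurin; signal relative to control wells, capped at 0 and 100%. One two-parameter sigmoid per drug and line, fitted in a mixed model over all curves with the slope shared within a line.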

“SW1271 (small cell lung carcinoma, adherent, top dose 0.128 µM)”: the AUC worked out at 0.894 and the pIC50 was less than 6.89.

“SW1417 (large intestine, adherent, top dose 0.128 µM)”: the AUC turned out to be 0.897 and the pIC50 is less than 6.89.

For “SW1463 (large intestine, adherent, top dose 0.128 µM)”, the AUC amounted to 0.702 and the pIC50 is 7.35.

In the case of “SW1573 (lung adenocarcinoma, adherent, top dose 0.128 µM)”, the AUC stood at 0.893 and the negative logarithm of the IC50 (pIC50) was less than 6.89.

With “SW1710 (bladder, adherent, top dose 0.128 µM)”, the AUC was 0.686 and the negative-log IC50 (pIC50) is 7.57.

For “SW1783 (glioma, adherent, top dose 0.128 µM)”, the AUC stood at 0.789 and the negative logarithm of the IC50 (pIC50) is 7.30.

Turning to “SW1990 (pancreas, adherent, top dose 0.128 µM)”, the AUC came to 0.893 and the negative logarithm of the IC50 (pIC50) is less than 6.89.

With “Saos-2 (osteosarcoma, adherent, top dose 0.128 µM)”, the AUC amounted to 0.943 and the pIC50 was less than 6.89.

Consider “SiHa (cervix, adherent, top dose 0.128 µM)”, for which the AUC was 0.968 and the pIC50 was less than 6.89.

For “T84 (large intestine, adherent, top dose 0.128 µM)”, the AUC worked out at 0.743 and the pIC50 was 7.39.

Regarding “T98G (glioma, adherent, top dose 0.128 µM)”, the AUC was 0.776 and the pIC50 was 7.33.

Regarding “T-24 (bladder, adherent, top dose 0.128 µM)”, the AUC stood at 0.887 and the pIC50 is less than 6.89.

Take “T-T (oesophagus, adherent, top dose 0.128 µM)”: the AUC worked out at 0.838 and the pIC50 was 7.06.

Consider “TALL-1 (T-cell lymphoblastic leukaemia, suspension, top dose 0.128 µM)”, for which the AUC amounted to 0.93 and the pIC50 is less than 6.89.

For the cell line “TC-71 (Ewing sarcoma, adherent, top dose 0.128 µM)”, the AUC worked out at 0.548 and the pIC50 is 7.98.

For the cell line “TCCSUP (bladder, adherent, top dose 0.128 µM)”, the AUC amounted to 0.886 and the pIC50 is less than 6.89.

As to “TE-1 (oesophagus, adherent, top dose 0.128 µM)”, the AUC worked out at 0.914 and the pIC50 was less than 6.89.

On to “TE-4 (oesophagus, adherent, top dose 0.128 µM)”, for which the AUC was 0.612 and the pIC50 is 7.79.

Take “TE-5 (oesophagus, adherent, top dose 0.128 µM)”: the AUC is 0.781 and the negative-log IC50 (pIC50) is 7.21.

“TE-6 (oesophagus, adherent, top dose 0.128 µM)”: the AUC was found to be 0.927 and the pIC50 was less than 6.89.

On to “TE-8 (oesophagus, adherent, top dose 0.128 µM)”, for which the AUC worked out at 0.966 and the pIC50 was less than 6.89.

As to “TE-9 (oesophagus, adherent, top dose 0.128 µM)”, the AUC came to 0.984 and the pIC50 was less than 6.89.

“TE-10 (oesophagus, adherent, top dose 0.128 µM)”: the AUC was 0.851 and the pIC50 is 7.02.

For the cell line “TE-11 (oesophagus, adherent, top dose 0.128 µM)”, the AUC amounted to 0.937 and the pIC50 was less than 6.89.

Regarding “TE-12 (oesophagus, suspension, top dose 0.128 µM)”, the AUC was 0.825 and the pIC50 is 7.00.

Regarding “TE-15 (oesophagus, suspension, top dose 0.128 µM)”, the AUC came to 0.665 and the pIC50 was 7.61.

For “TE-441-T (rhabdomyosarcoma, adherent, top dose 0.128 µM)”, the AUC was determined as 0.864 and the negative logarithm of the IC50 (pIC50) is 6.98.

As to “TGBC1TKB (biliary tract, adherent, top dose 0.128 µM)”, the AUC came out at 0.934 and the pIC50 was less than 6.89.

As to “TGBC11TKB (stomach, adherent, top dose 0.128 µM)”, the AUC is 0.992 and the pIC50 is less than 6.89.

Turning to “TGBC24TKB (biliary tract, adherent, top dose 0.128 µM)”, the AUC was determined as 0.788 and the pIC50 was 7.28.

“TGW (neuroblastoma, adherent, top dose 0.128 µM)”: the AUC turned out to be 0.88 and the pIC50 is 7.00.

As for “THP-1 (acute myeloid leukaemia, suspension, top dose 0.128 µM)”, the AUC worked out at 0.551 and the pIC50 was 7.96.

As for “TK10 (kidney, adherent, top dose 0.128 µM)”, the AUC stood at 0.69 and the pIC50 is 7.51.

On to “TK (B-cell lymphoma, suspension, top dose 0.128 µM)”, for which the AUC is 0.45 and the pIC50 is 8.23.

On to “TMK-1 (stomach, adherent, top dose 0.128 µM)”, for which the AUC stood at 0.908 and the pIC50 was less than 6.89.

For the cell line “TOV-21G (ovary, adherent, top dose 0.128 µM)”, the AUC is 0.908 and the pIC50 is less than 6.89.

Turning to “TOV-112D (ovary, adherent, top dose 0.128 µM)”, the AUC is 0.562 and the negative-log IC50 (pIC50) was 7.92.

For “TT2609-C02 (thyroid, adherent, top dose 0.128 µM)”, the AUC amounted to 0.847 and the pIC50 is 6.99.

As for “TT (thyroid, adherent, top dose 0.128 µM)”, the AUC was determined as 0.971 and the negative-log IC50 (pIC50) was less than 6.89.

As to “TUR (B-cell lymphoma, suspension, top dose 0.128 µM)”, the AUC came out at 0.421 and the negative-log IC50 (pIC50) was 8.31.

As for “TYK-nu (ovary, adherent, top dose 0.128 µM)”, the AUC is 0.962 and the pIC50 is less than 6.89.

Take “U031 (kidney, adherent, top dose 0.128 µM)”: the AUC worked out at 0.716 and the pIC50 was 7.47.

As to “U251 (glioma, adherent, top dose 0.128 µM)”, the AUC is 0.76 and the pIC50 was 7.37.

As to “U-2-OS (osteosarcoma, adherent, top dose 0.128 µM)”, the AUC worked out at 0.9 and the pIC50 was less than 6.89.

“U-87-MG (glioma, adherent, top dose 0.128 µM)”: the AUC came to 0.606 and the pIC50 was 7.78.

For “U-118-MG (glioma, adherent, top dose 0.128 µM)”, the AUC was 0.563 and the pIC50 is 7.91.

For the cell line “U-698-M (B-cell leukaemia, suspension, top dose 0.128 µM)”, the AUC was determined as 0.924 and the pIC50 is less than 6.89.

On to “UACC-62 (melanoma, adherent, top dose 0.128 µM)”, for which the AUC is 0.74 and the pIC50 was 7.41.

Regarding “UACC-257 (melanoma, adherent, top dose 0.128 µM)”, the AUC was determined as 0.792 and the pIC50 was 7.13.

For “UACC-812 (breast, adherent, top dose 0.128 µM)”, the AUC was 0.827 and the pIC50 is 7.13.

On to “UACC-893 (breast, adherent, top dose 0.128 µM)”, for which the AUC was found to be 0.559 and the pIC50 is 7.91.

With “UM-UC-3 (bladder, adherent, top dose 0.128 µM)”, the AUC turned out to be 0.431 and the pIC50 was 8.28.

Consider “UMC-11 (lung carcinoid, adherent, top dose 0.128 µM)”, for which the AUC amounted to 0.859 and the pIC50 was 7.05.

For the cell line “UWB1.289 (ovary, adherent, top dose 0.128 µM)”, the AUC came out at 0.822 and the pIC50 was less than 6.89.

As for “VA-ES-BJ (soft tissue, adherent, top dose 0.128 µM)”, the AUC was determined as 0.787 and the pIC50 was 7.23.

As for “VAL (B-cell lymphoma, suspension, top dose 0.128 µM)”, the AUC was 0.658 and the pIC50 is 7.66.

For “VCaP (prostate, adherent, top dose 0.128 µM)”, the AUC was 0.41 and the pIC50 was 8.35.

As for “VM-CUB-1 (bladder, adherent, top dose 0.128 µM)”, the AUC was 0.932 and the negative logarithm of the IC50 (pIC50) was less than 6.89.

With “VMRC-MELG (melanoma, adherent, top dose 0.128 µM)”, the AUC worked out at 0.956 and the pIC50 was less than 6.89.

In the case of “VMRC-RCW (kidney, adherent, top dose 0.128 µM)”, the AUC amounted to 0.866 and the pIC50 is 7.00.

For the cell line “VMRC-RCZ (kidney, adherent, top dose 0.128 µM)”, the AUC was determined as 0.789 and the negative-log IC50 (pIC50) is 7.17.

Consider “WIL2-NS (lymphoid neoplasm, suspension, top dose 0.128 µM)”, for which the AUC is 0.445 and the pIC50 is 8.23.

As to “WM35 (melanoma, adherent, top dose 0.128 µM)”, the AUC was determined as 0.338 and the pIC50 was 8.55.

Take “WM278 (melanoma, adherent, top dose 0.128 µM)”: the AUC amounted to 0.855 and the pIC50 is 6.91.

For “WM793B (melanoma, adherent, top dose 0.128 µM)”, the AUC is 0.629 and the pIC50 is 7.72.

Consider “WM1552C (melanoma, adherent, top dose 0.128 µM)”, for which the AUC turned out to be 0.543 and the pIC50 is 7.98.

As for “WM-115 (melanoma, adherent, top dose 0.128 µM)”, the AUC is 0.474 and the pIC50 is 8.18.
